Measurements taken from article doi:10.1101/2022.09.29.510028 (bioRxiv, 2022).

Target: the molecule itself
Assay: native MS

B1: NPM1_(240) (NTD and the entire IDR, […]) (domain or fragment)
chain: not shown
stoichiometry N: 5 and 10

“And” between values parts separate entries of the source, which are not always exact repeats. Identical values can stand only once.
